Results taken from PubChem BioAssay AID1347417 (National Center for Advancing Translational Sciences (NCATS), 2020).
Among all 120,000 compounds or so, about 5,300 (4.4%) were called active. Inconclusive means that the source gave no clear call. Such entries were picked first, then a sample of the others. Calls come from the whole dose curve; as a rule, active = well fitted inhibition curve with a large enough effect; inconclusive = small, poorly fitted or top-dose-only effect; inactive = no such curve, though single readings can be large or run the other way. Where the call is inconclusive, the potency comes from a doubtful curve fit.
Potency is the fitted concentration of half-maximal effect; tags give direction and shape of the fitted curve.

Assay: qHTS Primary assay for Inhibitors of Plasmodium falciparum Dd2 growth in vitro; note: nearly all actives have a fitted effect of over 65% in size;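 for activity, negative = inhibition: plate controls were DMSO vehicle for no effect and reference drug for full effect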
Conditions: P. falciparum Dd2 growth, SYBR Green, 72 h; activity, negative = inhibition: at 28.9 µM (top of the series) unless noted; series mostly up to 28.9 µM
Procedure, shortened: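 Readout: SYBR Green fluorescence, 485 nm excitation, 535 nm emission, after ~16 h lysis at 37C. Before that, Dd2-infected red cells (2.5% hematocrit) grew 72 h with compound, 29 uM top final concentration.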
For `COc1cccc2c1OCCCN(C(=O)C1COc3ccccc3C1)C2` (stereo not drawn), the Potency was inconclusive: 12.6 µM [inhibitor, single point]. With `Cn1cc(-c2cnc3[nH]cc(CC(=O)NC4CCC4)c3c2)cn1` the “outcome” value was “inactive [at 44.1 µM]”. In the case of `O=C(NC(C(=O)N1CCCC1)C1CCN(C(=O)c2cccc(F)c2)CC1)c1ccccc1` (stereo not drawn), the Potency was inconclusive: 5.62 µM [inhibitor, partial curve, poor fit]. With `CCC(=O)N1c2ccccc2CC1C(=O)NCCc1ccc(Cl)cc1` (stereo not drawn) the Potency was inconclusive: 17.8 µM [inhibitor, single point]. With `COC(=O)C1=CN(CC(=O)Nc2c(C)cccc2C)S(=O)(=O)N=C1C` the “activity, negative = inhibition” value was inactive: 36.9%. In the case of `COCC(=O)N1CCCC(c2nn(-c3ccc(OC)cc3)c(=O)[nH]2)C1` (stereo not drawn), the Potency was inconclusive: 12.6 µM [inhibitor, partial curve, poor fit]. In the case of `O=C(Nc1ccc(-c2nnc3n2CCCC3)cc1)c1ccccn1`, the Potency was inconclusive: 3.98 µM [inhibitor, single point]. For `Cc1ccc(-n2nc3c(N4CCC(C(=O)NCCC(C)C)CC4)nnc(C)c3c2C)cc1`, the activity, negative = inhibition was inconclusive: -83.8% [inhibitor] [at 5.79 µM]. With `COCc1nc(C2CC(N)C2)cc(N(C)Cc2noc3c2CCCC3)n1` (stereo not drawn) the Potency was inconclusive: 17.8 µM [inhibitor, single point]. For `COC(=O)[C@@H]1Cc2c([nH]c3ccccc23)[C@H]2C[C@@H](NCCc3cnc[nH]3)C[C@@H](c3cccc(Cl)c3)N21`, the “outcome” value was “inactive”. In the case of `Cc1cccc(NC(=O)Nc2ccc(C)n(CC(=O)NCCC(C)C)c2=O)c1`, the “activity, negative = inhibition” value was inactive: -8.57%. In the case of `Cn1nccc1CN1CCC2(COc3ccccc3C(=O)N2)C1` (stereo not drawn), the Potency was inconclusive: 28.2 µM [inhibitor, single point]. With `O=C(COc1ccccc1)N[C@H]1CO[C@H]2[C@@H]1OC[C@@H]2Nc1nccc(-c2cccs2)n1` the Potency was inconclusive: 4.47 µM [inhibitor, partial curve, poor fit]. For `Cc1cc(C)n2c(Nc3cccc(C(F)(F)F)c3)c(-c3ccsc3)nc2n1`, the Potency was inconclusive: 17.8 µM [inhibitor, single point]. For `CCn1cc2nc(SCc3cccc(F)c3)n(CCc3ccccc3)c(=O)c2n1`, the Potency was inconclusive: 17.8 µM [inhibitor, single point]. In the case of `CCC(Cc1ccccc1)NC(=O)Cn1ncc2c3ccccc3n(Cc3ccc(F)cc3)c2c1=O` (stereo not drawn), the “activity, negative = inhibition” value was inactive: -5.37%. In the case of `COc1ccc(Cl)cc1NC(=O)CCCS(=O)(=O)c1nc(-c2ccc(OC)c(OC)c2)cc(C(F)(F)F)n1`, the Potency was inconclusive: 17.8 µM [inhibitor, single point]. For `O=C(O)CCn1ccc2cc(S(=O)(=O)N3CCCCC3)ccc21`, the “activity, negative = inhibition” value was inactive: -1.46%. For `CC[C@@H](NC(C)=O)c1nc(-c2cccnn2)no1`, the “activity, negative = inhibition” value was inactive: 0.76%. In the case of `CO[C@@H]1CCOC[C@H]1NC(=O)C1CCN(C(=O)c2ccccn2)CC1`, the “activity, negative = inhibition” value was inactive: -3.27%. For `CN(C)C(=O)c1ccc2nccn2c1`, the activity, negative = inhibition was inconclusive: -61.3% [inhibitor] [at 44.1 µM]. For `COc1ccc(-c2noc([C@@H]3C[C@H](NC(=O)COCC(=O)O)CN3C)n2)cc1`, the “activity, negative = inhibition” value was inactive: -17.7% [at 44.1 µM]. For `Cc1nc(-c2c3n(c(=O)n(Cc4ccc(OC(F)(F)F)cc4)c2=O)CCCCC3)no1`, the Potency was inconclusive: 1.26 µM [inhibitor, full curve]. With `CCC(=O)N1Cc2ccccc2CC2(CCCN(CC3CCNCC3)C2)C1` (stereo not drawn) the “activity, negative = inhibition” value was inactive: -2.08%. With `Cn1c(N2CCC3(CC2)OCCCC3O)nc2c1c(=O)[nH]c(=O)n2C` (stereo not drawn) the “activity, negative = inhibition” value was inactive: -18.7%. In the case of `O=C1NCc2ccccc2CC12CCN(Cc1ccc3ccccc3n1)CC2`, the Potency was inconclusive: 11.2 µM [inhibitor, partial curve]. In the case of `COc1ccccc1-c1[nH]nc2ncc(-c3ccccc3O)nc12`, the Potency was inconclusive: 3.55 µM [inhibitor, full curve]. For `COC(=O)[C@@H](C)NC(=O)[C@H]1CN(C(C)=O)CCN1S(C)(=O)=O`, the “activity, negative = inhibition” value was inactive: 6.94% [at 44.1 µM]. With `Cc1ccc(C(=O)CC2(O)C(=O)N(Cc3ccccc3)c3ccc(Br)cc32)cc1` (stereo not drawn) the Potency was active: 10 µM. For `C[C@@H](c1ccccc1)N1C(=O)[C@@H]2CN(S(=O)(=O)c3cccs3)CCN2C1=O`, the Potency was inconclusive: 7.94 µM [inhibitor, partial curve, poor fit]. In the case of `CSc1nn(Cc2ccc(F)cc2)c(N)c1S(=O)(=O)c1ccc(Cl)cc1`, the Potency was inconclusive: 10 µM [inhibitor, single point]. For `CC(Oc1ccccc1)C(=O)N1CCC(n2cc(-c3nc(-c4ccccc4)no3)nn2)CC1` (stereo not drawn), the Potency was inconclusive: 15.8 µM [inhibitor, partial curve, poor fit]. With `CCc1noc(-c2cccn3c(CNC(=O)Cc4ccccc4C)nnc23)n1` the Potency was inconclusive: 4.47 µM [inhibitor, partial curve, poor fit]. With `COc1ccc(-c2cc(N3CCCN(C(=O)c4cccc(Cl)c4)CC3)n[nH]2)cc1` the “activity, negative = inhibition” value was inactive: -13.5%. For `CC(C)n1nc(OC(C)(C)C(=O)NCC2CCOCC2)c2cc(CN3CCOCC3)ccc21`, the Potency was inconclusive: 0.398 µM [inhibitor, full curve]. In the case of `CNCC(=O)N1CCC2(CC1)CN(CCOc1ccccc1)C(=O)O2`, the Potency was inconclusive: 0.0708 µM [inhibitor, full curve, poor fit]. In the case of `CN1CCC(N[C@H]2C[C@@H](Cc3cc(CN(C)Cc4ccccc4)on3)C2(C)C)CC1`, the Potency was inconclusive: 2 µM [inhibitor, partial curve, poor fit]. For `Cc1cc(C(=O)N2CCCC(c3nn[nH]n3)C2)nn1C` (stereo not drawn), the “activity, negative = inhibition” value was inactive: 35%. For `COCCC1(CO)CCCN(C(=O)c2ccc3c(c2)OCC(=O)N3)C1` (stereo not drawn), the “activity, negative = inhibition” value was inactive: -2.43%. For `COc1ccc(CN2CC(CNc3ccccc3)C3(C2)CN(c2ccccc2)C3)cc1O` (stereo not drawn), the Potency was active: 3.55 µM. For `CCOc1ccc(C(=O)NC2CCN(c3cnn(C)c(=O)c3)CC2)cc1`, the “activity, negative = inhibition” value was inactive: -23.1%. In the case of `O=C(Cn1cc(S(=O)(=O)Cc2ccccc2Cl)c2ccccc21)Nc1cccc(C(F)(F)F)c1`, the “activity, negative = inhibition” value was inactive: -19.8%. For `Cc1ccc(S(=O)(=O)N(CC(=O)Nc2c(C)cccc2C)c2cccc(Cl)c2)cc1`, the activity, negative = inhibition was inconclusive: -37.4% [inhibitor] [at 5.79 µM]. In the case of `N#Cc1ccc(C(=O)N2CCCN(c3cc(-c4ccc(Cl)cc4)[nH]n3)CC2)cc1`, the “activity, negative = inhibition” value was inactive: -9.42%. For `CCOc1ccc(C(NC(=O)c2cc(OC)c(OC)c(OC)c2)c2cc(Cl)c3cccnc3c2O)cc1` (stereo not drawn), the Potency was inconclusive: 11.2 µM [inhibitor, partial curve, poor fit]. In the case of `COCCOc1ncccc1-c1noc([C@@H]2CCCN2Cc2ccc(S(C)(=O)=O)cc2)n1`, the Potency was inconclusive: 12.6 µM [inhibitor, single point]. For `Cn1ccnc1C(=O)N1CCCCCNC(=O)[C@H]2C[C@H](C(=O)N3CCc4ccccc4C3)C[C@H]21`, the “activity, negative = inhibition” value was inactive: -24.5%. For `COc1cccc(N2C(=O)NC(=NC3CCCCC3)C23CCN(C(=O)c2ccccc2)CC3)c1`, the Potency was inconclusive: 5.62 µM [inhibitor, partial curve, poor fit]. With `CC(C)Cc1cc(C(=O)N2CCCC(OCc3ccccn3)C2)n(C)n1` (stereo not drawn) the “activity, negative = inhibition” value was inactive: -4.9%. In the case of `COC1CCC12CCN(C(=O)Nc1ccccc1)CC2` (stereo not drawn), the “activity, negative = inhibition” value was inactive: -14.8%. In the case of `CC(C)CCN1CCC2(CC1)COc1ccccc1NC2=O`, the Potency was inconclusive: 12.6 µM [inhibitor, single point]. For `CC(=O)N1CCN(c2cc(-c3noc([C@@H]4CCCN4Cc4ccc(C(F)(F)F)cc4)n3)ccn2)CC1`, the Potency was inconclusive: 1.41 µM [inhibitor, full curve, poor fit]. In the case of `Cc1ccc(S(=O)(=O)NC[C@H]2C[C@@H]3CCN2C[C@@H]3CN(C)CCc2ccccn2)cc1`, the Potency was inconclusive: 10 µM [inhibitor, partial curve, poor fit]. For `CCn1nccc1C(=O)N1c2ccccc2CC1c1nnc(C2CC2)o1` (stereo not drawn), the “outcome” value was “inactive”. In the case of `Cc1ccc(C2(C(=O)N3CCCC4(CC3)CN(C)C(=O)O4)CC2)cc1` (stereo not drawn), the “activity, negative = inhibition” value was inactive: -8.11%. For `CC#CC(=O)N1CCCCC1C(=O)Nc1ccc(-n2nc(C)cc2C)cc1` (stereo not drawn), the “activity, negative = inhibition” value was inactive: -14.3%. For `CCC(CC)NC(=O)CCc1nc(C2CCCN2C(=O)NC(C)C)no1` (stereo not drawn), the “outcome” value was “inactive”. With `CC(C)CN1C(=O)c2cccn2CC1C(=O)NC1CCCCCC1` (stereo not drawn) the “activity, negative = inhibition” value was inactive: -49.8%. With `COc1ccc(CCN2CC(NCc3ccc4c(c3)OCCO4)CC2=O)cc1` (stereo not drawn) the Potency was inconclusive: 17.8 µM [inhibitor, partial curve, poor fit]. With `COc1ccc(OC)c2sc(N(CCCN(C)C)C(=O)c3ccco3)nc12` the Potency was inconclusive: 5.62 µM [inhibitor, partial curve, poor fit]. With `CCOC(=O)C1CCN(C(=O)c2cc(-c3ccncc3)cn2Cc2ccccc2C)CC1` the Potency was active: 6.31 µM. With `CCCc1noc(-c2cn(C3CCN(C(=O)c4cc(F)ccc4F)CC3)nn2)n1` the Potency was inconclusive: 2.82 µM [inhibitor, full curve, poor fit]. With `O=C(COc1ccccc1)Nc1ccc2nc(SCC(=O)N3CCCC3)sc2c1` the Potency was active: 11.2 µM. For `COc1ccc(C(=O)N2CCc3nc(C)nc(-c4ccc(Cl)cc4)c3CC2)cc1`, the “outcome” value was “inactive”. In the case of `CN(Cc1ccccc1)C(=O)C[C@@H]1c2nc(NC(=O)C3CCC3)sc2C[C@@H]2[C@](C)(CO)[C@H](O)CC[C@]21C`, the Potency was inconclusive: 7.08 µM [inhibitor, partial curve, poor fit]. With `CC(C)(Oc1nn(CC2CC2)c2ccc(CN3CCCC3)cc12)C(=O)Nc1cccnc1` the Potency was inconclusive: 1.41 µM [inhibitor, partial curve, poor fit]. With `COc1ccc(-c2ccc3ncc(Nc4ccc(OC)c(OC)c4)n3n2)cn1` the Potency was inconclusive: 3.16 µM [inhibitor, partial curve, poor fit]. For `CC/C=C\CCc1c(-c2ccccc2)ncn1CCN1CCN(C)CC1`, the Potency was active: 4.47 µM.
